Measured values taken from patent publication US11254722B2, “Recombinant proteins and uses thereof” (ACADEMIA SINICA, priority 2017, dated 2022).

T1: nrgECD (amino acids Ser2-Lys246 of neuregulin beta 1) (Homo sapiens, UniProt Q02297)
T1 construct: Ser2-Lys246 of neuregulin beta 1; purchased R&D Sciences or SinoBiologicals
T1 sequence (Q02297 2-246 isoform Q02297-6): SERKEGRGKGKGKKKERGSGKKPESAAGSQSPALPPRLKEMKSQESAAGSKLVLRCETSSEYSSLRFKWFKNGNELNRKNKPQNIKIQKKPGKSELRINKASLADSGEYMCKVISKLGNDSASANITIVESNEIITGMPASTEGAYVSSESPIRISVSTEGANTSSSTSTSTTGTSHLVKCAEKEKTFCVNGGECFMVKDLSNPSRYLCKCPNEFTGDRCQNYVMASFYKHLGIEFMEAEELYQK

T2: VEGF (Homo sapiens, UniProt P15692)
T2 construct: purchased R&D Systems
T2 sequence (P15692 27-191 isoform P15692-4): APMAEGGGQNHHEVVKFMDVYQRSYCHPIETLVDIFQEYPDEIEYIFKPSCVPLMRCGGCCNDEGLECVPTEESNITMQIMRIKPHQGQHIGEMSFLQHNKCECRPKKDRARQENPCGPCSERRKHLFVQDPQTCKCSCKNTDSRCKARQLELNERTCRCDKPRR

T3: nrgEGF (amino acids Thr176-Lys246 of neuregulin-beta 1) (Homo sapiens, UniProt Q02297)
T3 construct: Thr176-Lys246 of neuregulin-beta 1; purchased R&D Sciences or SinoBiologicals
T3 sequence (Q02297 176-246 isoform Q02297-6): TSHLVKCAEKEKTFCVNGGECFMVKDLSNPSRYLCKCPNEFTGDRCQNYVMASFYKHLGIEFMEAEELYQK

B1: IGFBP3-v1v2-Fc: IGFBP3-gly 3 linker-v1v2-Fc, SEQ ID NO: 21 (protein)
chain: MSEVPVARVWLVLLLLTVQVGVTAG[here about 250 residues without letters]APPAPGNASESEEDRSAGIYIFISDTGRPFVEMYSEIPEIIHMTEGRELVIPCRVTSPNITVTLKKFPLDTLIPDGKRIIWDSRKGFIISNATYKEIGLLTCEATVNGHLYKTNYLTHRQGYRIYDVVLSPSHGIELSVGEKLVLNCTARTELNVGIDFNWEYPSSKHQHKKLVNRDLKTQSGSEMKKFLSTLTIDGVTRSDQGLYTCAASSGLMTKKNSTFVRVHEKVECPPCPAPPVAGPSVFLFPPKPKDQLMISRTPEVTCVVVDVSHEDPEVKFNWYVDGVEVHNAKTKPREEQYNSTYRVVSVLTVLHQDWLNGKEYKCKVSNKGLPSSIEKTISKAKGQPREPQVYTLPPSREEMTKNQVSLTCLVKGFYPSDIAVEWESNGQPENNYKTTPPVLDSDGSFFLYSKLTVDKSRWQQGNVFSCSVMHEGLHNHYTQKSLSLSPGK
B2: D3met34: SEQ ID NO: 29; chimera with a met domain (met is the HGF receptor) (protein)
chain: MSEVPVARVWLVLLLLTVQVGVTAG[here about 250 residues without letters]AAASGGGSGGGGSGGGGSGGDPIVYEIHPTKSFISTWWKEPLNIVSFLFCFASGGSTITGVGKNLNSVSVPRMVINVHEAGRNFTVACQHRSNSEIICCTTPSLQQLNLQLPLKTKAFFMLDGILSKYFDLIYVHNPVFKPFEKPVMISMGNENVLEIKGNDIDPEAVKGEVLKVGNKSCENIHLHSEAVLCTVPNDLLKLNSELNIEWKQAISSTVLGKVIVQPDQNFTGSGGGSGGGSTGVECPPCPAPPVAGPSVFLFPPKPKDQLMISRTPEVTCVVVDVSHEDPEVKFNWYVDGVEVHNAKTKPREEQYNSTYRVVSVLTVLHQDWLNGKEYKCKVSNKGLPSSIEKTISKAKGQPREPQVYTLPPSREEMTKNQVSLTCLVKGFYPSDIAVEWESNGQPENNYKTTPPVLDSDGSFFLYSKLTVDKSRWQQGNVFSCSVMHEGLHNHYTQKSLSLSPGK

Experiments:
[1] = target: T1, nrgECD (amino acids Ser2-Lys246 of neuregulin beta 1); experiment: Biacore binding to nrgECD; settings: immobilized nrgECD
Method: (§1) Biacore binding was performed at David Myszka's laboratory at the University of Utah or at the Genomic Research Center at Academia Sinica. Surfaces of binding protein chimera were made via chemical immobilization on a CM4 chip using standard amine coupling chemistry. […] Excess surface carboxyl activated sites on all four flow cells was blocked using the doubly positively charged species ethylenediamine. Binding experiments (but not immobilizations) in HBS-P (10 mM HEPES pH 7.4, 150 mM NaCl, 0.05% P20), The HBS-P was supplemented with BSA at 0.2 mg/mL, or HBS-P was supplemented with 500 mM NaCl (650 mM NaCl, final concentration). Analytes were also reconstituted in the corresponding buffer. All experiments were performed at 25° C. 1/150 dilutions of phosphoric acid were used to regenerate IGFBP3-Fc surfaces and a sequence of 3 M MgCl2 followed by 5 M GuCl was used to regenerate surfaces immobilized with growth factor. Dissociation constants reported below used immobilized binding protein unless noted. Differences between binding constants may be expected between growth factor immobilization and chimera immobilization.
(§2) In this example, erbB4 domain 1 was attached to the N-terminus of the recombinant IGFBP3-Fc or the recombinant IGFBP3-v1v2-Fc.

[2] = test system: cancer cells; experiment: In vitro proliferation of cancer cells stimulated by growth factors (Table 8); format: cell-based
Method: (§3) For the proliferation assay, cells except for HUVEC were seeded at a density of 1,000 to 6,000 in 96 wells in an assay buffer of DMEM/F12 plus 0.2% BSA and 10 ug/ml transferrin. Chemical inhibitors were added after 16-20 hours after plating; IGF-1 or other growth factors or test chimeras in assay buffer were added at the time of plating or 16-20 hours after plating. 5,000 HUVEC ells were plated in poly-L-lysine coated 96 wells in M199 with 1%/FBS and HEPES. After 3 to 4 days of culture, growth was determined by incubating cells with Alamar blue for 4 to 6 hours and then the fluorescence (RFU) at 544/590 nm was read. For long term proliferation assays, cells were plated in the growth media with 5% or 10% FBS at densities of 500 to 10,000 cells per cm^2 growth area and grown for 7 to 21 days. Inhibitors and effectors were added 1-4 days after plating. Cells were exposed to cisplatin or gemcitabine for two days. Medium was renewed twice weekly. At completion, cells were fixed and then stained with Giemsa.
The BP3-fc construct inhibited the proliferation of cancer cells that had been stimulated by IGF-1, IGF-2, neuregulin, HGF, and bFGF.

[3] = target: T2, VEGF; experiment: In vitro proliferation stimulated by VEGF (Table 8); format: cell-based
Method: as §3
The BP3-VEGF-trap-fc (including the IGFBP3 domains, the VEGFR1 domain 2 and VEGFR2 domain 3 (VEGF-trap (22)), and human immunoglobulin Fc region) broadened the binding to include VEGF-A, VEGF-B, and placental growth factor (PIGF). This BP3-VEGF-trap chimera could inhibit the proliferation stimulated by IGF-1, IGF-2, neuregulin, PDGF-BB, HGF, bFGF, VEGF-A, and PIGF (see, Table 8).

[4] = target: T3, nrgEGF (amino acids Thr176-Lys246 of neuregulin-beta 1); experiment: Biacore binding to nrgEGF
Method: as §1, §2

[5] = test system: hep3B cells; experiment: hep3B proliferation assay; format: cell-based, human; settings: Table 10
Method: as §3
The human hepatoma cell line hep3B could be stimulated by many growth factors including IGF-1, IGF-2, HGF, bFGF, VEGF, and neuregulin.

Molecule	Kd [1]	inhibition of proliferation stimulated by bFGF [2]	inhibition of proliferation stimulated by VEGF [3]	Kd nrgEGF [4]	IC50 ([5]; read-out: IC50, FBS-stimulated proliferation of hep3B cells)	IC50 ([5]; read-out: IC50, HGF-stimulated proliferation of hep3B cells)	IC50 ([5]; read-out: IC50, IGF1-stimulated proliferation of hep3B cells)	IC50 ([5]; read-out: IC50, bFGF-stimulated proliferation of hep3B cells)	IC50 ([5]; read-out: IC50, nrg-stimulated proliferation of hep3B cells)
B1	0.18 nM	inh	inh	No binding	–	–	–	–	–
B2	–	–	–	–	128 nM	14 nM	24 nM	149 nM	89 nM

Where two headings read alike, the source gives them in different places.
